# Measurements as given in the supplement of paper PMC6746778.
# Some of the results follow. Most values come without repeats; read them as rough.
# Legend:
# Assay in all cases: proliferation Z-score within cell line (SRB, relative to all inhibitors screened on that line); triple-negative breast cancer lines and a kinase inhibitor library; SRB is the sulforhodamine B protein stain; higher = less growth inhibition (more resistant)
# Settings in all cases: concentration: 1 µM; 4 days
# Bt20 = system: Bt20
# Bt549 = system: Bt549
# HCC1143 = system: HCC1143
# HCC1806 = system: HCC1806
# HCC1937 = system: HCC1937
# HCC38 = system: HCC38
# HCC70 = system: HCC70
# Hs578T = system: Hs578T
# MDA-MB-231 = system: MDA-MB-231
# MDA-MB-435s = system: MDA-MB-435s
# MDA-MB-436 = system: MDA-MB-436
# MDA-MB-453 = system: MDA-MB-453
# MDA-MB-468 = system: MDA-MB-468
# SKBR7 = system: SKBR7
# SUM1315MO2 = system: SUM1315MO2
# SUM149PT = system: SUM149PT
# SUM159PT = system: SUM159PT
# SUM185PE = system: SUM185PE
# SUM229PE = system: SUM229PE
# SUM52PE = system: SUM52PE
# 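Also: Single-dose primary screen of a 378-member kinase inhibitor library in 96-well plates, with growth read as absorbance of protein-bound SRB dye after TCA fixation.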
SMILES,proliferation Z-score within cell line (Bt20),proliferation Z-score within cell line (Bt549),proliferation Z-score within cell line (HCC1143),proliferation Z-score within cell line (HCC1806),proliferation Z-score within cell line (HCC1937),proliferation Z-score within cell line (HCC38),proliferation Z-score within cell line (HCC70),proliferation Z-score within cell line (Hs578T),proliferation Z-score within cell line (MDA-MB-231),proliferation Z-score within cell line (MDA-MB-435s),proliferation Z-score within cell line (MDA-MB-436),proliferation Z-score within cell line (MDA-MB-453),proliferation Z-score within cell line (MDA-MB-468),proliferation Z-score within cell line (SKBR7),proliferation Z-score within cell line (SUM1315MO2),proliferation Z-score within cell line (SUM149PT),proliferation Z-score within cell line (SUM159PT),proliferation Z-score within cell line (SUM185PE),proliferation Z-score within cell line (SUM229PE),proliferation Z-score within cell line (SUM52PE)
NC(=O)c1cnc(N[C@@H]2CCCC[C@@H]2N)nc1Nc1cccc(-n2nccn2)c1,0.944,0.62,0.684,0.937,0.618,0.523,0.48,0.465,0.46,0.579,0.345,0.655,0.934,0.828,0.463,0.726,0.396,-0.377,0.573,0.0675
Cc1c(CN2CCN(C(=O)[C@H](C)O)CC2)sc2c(N3CCOCC3)nc(-c3cnc(N)nc3)nc12,-1.78,-1.84,-1.25,-1.16,-1.8,-0.778,-1.76,-1.98,-1.19,-1.39,-1.62,-1.56,-1.13,-1.66,-1.39,-0.66,-1.72,-1.6,-1.5,-1.21
CN1CC[C@@H](c2c(O)cc(O)c3c(=O)cc(-c4ccccc4Cl)oc23)[C@@H]1CO,-2.68,-3.32,-3.76,-1.43,-3.28,-4.91,-3.29,-3.35,-2.53,-2.35,-2.62,-2.21,-2.42,-2.82,-2.3,-1.82,-3.85,-1.41,-2.43,-1.54
CCN(CCO)CCCOc1ccc2c(Nc3cc(CC(=O)Nc4cccc(F)c4)[nH]n3)ncnc2c1 [Barasertib (AZD1152-HQPA)],-1.74,-0.419,0.322,-0.252,0.56,-0.626,-1.43,-0.176,-0.333,-0.462,-0.247,-0.658,-1.4,-0.361,0.324,0.234,0.594,0.284,-0.188,0.727
O=C1c2ccc(Nc3ccc(F)cc3F)cc2CCc2ccc(OC[C@H](O)CO)cc21 [Skepinone-L],0.547,0.538,0.652,0.732,0.754,0.55,0.544,0.566,0.547,0.781,0.264,0.773,0.537,0.462,0.208,0.527,0.341,0.374,0.655,0.441
CCOc1ccn(-c2ccc(F)cc2)c(=O)c1C(=O)Nc1ccc(Oc2ccnc(N)c2Cl)c(F)c1,0.836,0.863,0.903,0.768,0.778,0.558,0.832,0.598,0.691,0.564,0.543,0.829,0.912,0.925,0.668,0.984,0.557,0.527,0.423,0.639
Cc1ncc(-c2ccnc(Nc3ccc(S(C)(=O)=O)cc3)n2)n1C(C)C,0.401,-0.7,-0.564,0.605,0.693,0.52,-0.254,0.244,-1.41,-0.131,-0.286,-0.425,-0.616,-1.15,0.723,0.477,-0.937,1.43,0.358,0.17
Nc1nc(N)c2nc(-c3cccc(O)c3)c(-c3cccc(O)c3)nc2n1,0.505,0.499,0.434,0.847,0.614,0.574,0.689,0.83,0.99,0.732,0.344,0.0772,0.743,0.651,0.712,0.626,0.507,0.189,0.335,0.453
Cn1cc(-c2cnn3c(N)c(Br)c([C@@H]4CCCNC4)nc23)cn1,0.734,0.186,0.126,-1.12,0.0378,0.0822,-0.876,0.505,0.724,0.913,-0.653,0.29,0.987,0.229,-0.259,0.725,0.518,0.00537,-0.0531,0.905
O=C(O)[C@]1(Cc2cccc(Nc3nccs3)n2)CC[C@@H](Oc2cccc(Cl)c2F)CC1,-0.975,-0.193,-0.632,-0.493,0.325,-0.744,-0.831,-0.772,-0.201,-0.305,-0.448,-0.919,-1.16,-0.905,-0.622,-0.106,-0.783,0.135,-0.0321,-0.654
C=CS(=O)(=O)NC1CCN(C(=O)CNc2cc(I)c(Cl)cc2OC)CC1 [K-Ras(G12C) inhibitor 9],0.222,0.177,0.62,-0.596,0.297,0.275,0.326,0.331,0.622,0.315,-0.87,-0.587,0.233,0.00347,0.137,0.424,0.281,0.269,0.25,0.74
COc1cc(Nc2c(C#N)cnc3cc(OCCCN4CCN(C)CC4)c(OC)cc23)c(Cl)cc1Cl [Bosutinib (SKI-606)],-0.561,0.298,0.391,-1.7,-1.01,-0.486,-0.304,0.394,-0.0185,-0.119,-0.74,0.464,0.255,-0.265,-0.437,-0.586,0.224,0.572,-0.593,-0.083
COc1cc2nccc(Oc3ccc(NC(=O)Nc4cc(C)on4)c(Cl)c3)c2cc1OC [Tivozanib (AV-951)],0.678,0.901,0.775,1.78,0.754,0.377,0.576,0.489,0.612,0.647,0.381,0.81,0.544,1.28,-0.803,0.813,0.463,-0.83,1.52,-2.1
C[C@@H]1CN(CC(=O)Nc2ccc3c(c2)Cc2cccc(-c4cc(=O)cc(N5CCOCC5)o4)c2S3)C[C@H](C)O1,0.98,0.793,0.703,0.68,0.641,0.577,0.535,0.616,-0.116,0.567,0.565,0.868,0.751,1.13,1.24,0.887,0.461,0.927,0.615,0.923
O=C(NOC[C@H](O)CO)c1ccc(F)c(F)c1Nc1ccc(I)cc1F,0.0724,-0.218,-0.698,-1.84,0.399,-0.731,-0.136,-1.18,-2.11,-2.01,0.179,-1.39,-0.646,0.0511,-0.33,-2.75,0.157,-0.281,-2.43,-1.16
Cn1cnc2c(F)c(Nc3ccc(Br)cc3Cl)c(C(=O)NOCCO)cc21 [Selumetinib (AZD6244)],0.101,0.267,-1.57,-1.8,-0.0935,-0.768,-0.497,-0.32,-1.99,-1.89,-0.231,0.785,0.547,1.54,0.406,-1.54,0.181,1.13,-1.9,-1.45
CC1COCCN1c1cc(C2(S(C)(=O)=O)CC2)nc(-c2cccc3[nH]ccc23)n1 (stereo not given),-2.09,-2.2,-1.24,-1.9,-2.27,-0.878,-2.58,-1.66,-0.763,-0.715,-1.99,-1.32,-1.33,-1.35,-1.28,-2,-2.01,-1.78,-1.81,-1.42
Cc1cnc(Nc2ccc(N3CCN(C)CC3)cc2)nc1Nc1cccc(S(=O)(=O)NC(C)(C)C)c1,0.26,0.301,-0.386,-0.105,0.0652,0.636,0.723,0.0765,-0.537,-0.748,-0.187,0.48,-0.202,-0.235,-0.874,-0.826,0.582,-0.49,0.138,-1.06
Cn1cc(-c2ccc3nnc(Sc4ccc5ncccc5c4)n3n2)cn1,1.03,0.707,0.879,0.933,0.77,0.512,0.776,0.664,0.885,0.912,0.817,1.05,1.09,1.8,1.13,0.65,0.571,1.62,0.563,1.35
C=CC(=O)Nc1cccc(Oc2nc(Nc3ccc(N4CCN(C)CC4)cc3OC)ncc2Cl)c1,-0.841,0.531,0.842,0.617,0.711,0.626,0.823,0.746,0.27,0.305,0.865,0.716,-0.914,0.742,-0.562,-0.182,0.528,-0.318,-0.69,-0.586
COc1cc(Nc2ncc3c(n2)-c2ccc(Cl)cc2C(c2c(F)cccc2OC)=NC3)ccc1C(=O)O [Alisertib (MLN8237)],-0.769,-1.16,-0.684,0.295,-0.787,-1.01,-0.755,-1.07,-1.53,-0.536,-0.134,-1.03,-1.86,-1.09,-0.153,-0.358,0.31,0.174,-0.0983,-1.25
OCCn1cc(-c2ccc3c(c2)CC/C3=N\O)c(-c2ccncc2)n1,0.878,0.57,0.73,0.886,0.659,0.00835,0.511,0.478,0.952,-1.47,0.309,0.242,1.13,0.553,0.616,0.824,0.271,0.314,1.27,-0.691
